This is one part of the list.
tested on: T1, C. trachomatis L2/434/Bu expressing GFP (CTL2-GFP); design: species or system HeLa; C. trachomatis total inclusion area by high-content imaging, normalised to DMSO; conditions: total inclusion area; 28.5 h, 10 µM; inhibitor
T1 construct: L2/434/Bu GFP intracellular growth in HeLa cells
Outline: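 After bulk GFP and resorufin fluorescence reads, cells were fixed, stained with Hoechst and imaged by high-content microscopy. Inclusion area and number (GFP) stood in for chlamydial growth, nuclei count (Hoechst) for host cell viability. MICs were derived as for the bulk readout.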

Structure (SMILES) | % of control remaining
CCOC(=O)c1cnn2c(O)cc(CN(CC(C)(C)O)C(C)C)nc12 [CBK306133] | 66.1704
CC(=O)Nc1c[nH]nc1C1CCCN(c2cccc(F)c2C#N)C1 (stereo not shown) [CBK306401] | 117.902
CC[C@H](Cn1ncc2ccccc2c1=O)NC(=O)CC(C)C [CBK284305] | 44.2937
COc1cccc(NC(=O)CC(CN2CCC(O)CC2)C(=O)O)c1 (stereo not shown) [CBK286842] | 111.602
O=[N+]([O-])c1ccccc1CN1C[C@H](O)C[C@H]1c1nc(-c2ccncc2)no1 [CBK288839] | 104.006
COc1ccc2c(c1)CC(=O)NC21CCN(C(=O)N[C@@H](C)c2ccccc2)CC1 [CBK047325] | 96.0049
Cc1ccc(NC(=O)CCC(=O)N/N=C/c2ccco2)c(C)c1 [CBK263885] | 110.843
CCNC(=O)Nc1cc2cccnc2c(-c2ccsc2)n1 [CBK081226] | 129.625
COc1c(Br)cc(Br)cc1/C=C1/SC(=N)NC1=O [CBK119298] | 95.9466
Cc1n[nH]c(O)c1C(c1ccc(OC(=O)c2ccc(F)cc2)cc1)c1c(C)n[nH]c1O [CBK264816] | 116.224
CCc1nc(C(C)NC(=O)COc2nn(C)c3nc(C)cc(C)c23)cs1 (stereo not shown) [CBK306024] | 72.4029
Cn1nc2c(c1C(=O)N1CCc3[nH]c4ccccc4c3C1)CCCC2 [CBK281844] | 81.4902
COc1cccc(N(CC(=O)Nc2ccc(C)c(C)c2)S(=O)(=O)c2ccc(C)cc2)c1 [CBK263761] | 104.742
COc1ccc(C(C)C)cc1-c1nc2ncccc2cc1NC(=O)C(C)C [CBK073659] | 101.081
COCCn1c(SCC(=O)N2CCNC2=O)nc2ccccc21 [CBK305851] | 59.298
O=c1cc(O)cc(CCc2ccccc2)o1 [CBK012714] | 156.215
CC(c1ccc(Cl)cc1Cl)N(C)C(=O)Cn1cnc2c1CCCC2 (stereo not shown) [CBK306387] | 25.3733
c1ccc(N2CCN(CC3CN(c4ccccc4)c4ccccc4O3)CC2)cc1 (stereo not shown) [CBK066876] | 79.9069
O=C(N[C@H]1CCN2C(=O)c3cc(-c4cccs4)ccc3NC(=O)[C@@H]2C1)c1cnccn1 [CBK289559] | 102.547
Cc1ccc(C)c(OCCNS(=O)(=O)c2cc([N+](=O)[O-])ccc2C)c1 [CBK267393] | 95.5931

Structure (SMILES) | % of control remaining
O=C(c1cncnc1)N1CCN(c2ncccn2)CC1 [CBK144515] | 106.605
CCOC(=O)c1cn([C@H]2CC[C@H](O)CC2)cc(Oc2ccccc2)c1=O [CBK307565] | 55.0943
Cc1ccc(S(=O)(=O)NC(C)C(=O)Nc2ccc(C)c(Cl)c2)cc1 (stereo not shown) [CBK266263] | 123.918
O=C(CCN1C(=O)c2cccc([N+](=O)[O-])c2C1=O)Nc1cccc(-c2cnc3ccccc3n2)c1 [CBK268620] | 125.025
CC(C)C(=O)N1CC2(CCN(Cc3cccc(C(F)(F)F)c3)CC2)c2ccccc21 [CBK126716] | 61.2703
OCCN(CC#CC(O)(c1ccccc1)c1cccc(F)c1)CCO (stereo not shown) [CBK301210C] | 117.539
COc1cccc(C(c2ccccn2)N(C)C(=O)C2CCN(S(=O)(=O)c3c(C)noc3C)CC2)c1 (stereo not shown) [CBK060212] | 89.6734
Cc1cc(C)n(CC(=O)Nc2cccc(CCc3ccncc3)c2)c(=O)n1 [CBK285555] | 124.088
O=C(N[C@H]1COC(=O)N1)OCc1ccccc1 [CBK007606] | 85.6656
COc1ccc(-c2cc(C(=O)Nc3c(C)cccc3C)n[nH]2)c(OC)c1 [CBK288114] | 89.6289
CC12CN3CC(C)(CN(C1)C3c1cc(Br)ccc1O)C2O (stereo not shown) [CBK262664] | 96.6869
Cc1cc(=O)n(C)c(=O)n1CCCN1CCCCC1 [CBK027584] | 110.198
CCOc1ccc(C(=O)CCNCC(=O)O)cc1 [CBK286657] | 84.1198
Cc1ccc(NC(=O)CSc2nnc(-c3cnccn3)s2)cc1 [CBK269872] | 101.421
O=C1/C(=N\O)c2ccccc2N1Cc1ccccc1 [CBK288484] | 94.4046
Cc1ccc(S(=O)(=O)NNC(=O)COc2cccc3cccnc23)cc1 [CBK268788] | 73.9657
S=C(NCCc1ccccn1)NCCN1CCOCC1 [CBK268296] | 106.539
Cc1ccc(CNS(=O)(=O)c2ccc3ccccc3c2)cc1 [CBK266501] | 79.3522
Nc1ncc(-c2cccc(F)c2)nc1Nc1ccc2[nH]ccc2c1 [CBK063851] | 116.137
COc1ccccc1CN(C)C(C)C(=O)Nc1ccc(NC(C)=O)cc1 (stereo not shown) [CBK305873] | 52.6276

— paper PMC12040169 (PLOS Biology, 2025)
